# Experimental data published in PubChem BioAssay AID1347428 (National Center for Advancing Translational Sciences (NCATS), 2020).
# Among all 91,000 compounds or so, about 290 (0.32%) were called active. Inconclusive means that the source gave no clear call. Such entries were picked first, then a sample of the others. Calls come from the whole dose curve; as a rule, active = well fitted inhibition curve with a large enough effect; inconclusive = small, poorly fitted or top-dose-only effect; inactive = no such curve, though single readings can be large or run the other way. Potencies beside an inconclusive call are fits to weak or partial responses and may not hold up.
# Target: Single-stranded DNA cytosine deaminase (Homo sapiens) (UniProt Q9GZX7)
# Chain of UniProt Q9GZX7 (Q9GZX7 whole entry, looked up): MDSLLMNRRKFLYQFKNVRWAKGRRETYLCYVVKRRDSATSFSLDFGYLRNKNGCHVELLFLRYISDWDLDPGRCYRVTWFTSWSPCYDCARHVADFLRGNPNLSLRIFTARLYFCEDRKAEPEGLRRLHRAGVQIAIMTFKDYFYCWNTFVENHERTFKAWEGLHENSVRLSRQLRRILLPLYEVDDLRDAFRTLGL
# Experiment: Primary qHTS assay for inhibitors of Activation Induced Cytidine Deaminase (AID): AID signal; note: nearly all actives have a fitted effect of over 25% in size
# Details: AID deamination FRET fluorescence, UDG-coupled, 4 h; activity change, negative = inhibition: at 115 µM (top of the series)
# % is set by controls: 0 for no effect and ±100 for the full control effect; potency is the fitted concentration of half-maximal effect; tags give direction and shape of the fitted curve.
Structure (SMILES),Potency,"activity change, negative = inhibition"
Cc1ccc(C(=O)NCC(c2ccco2)S(=O)(=O)c2cccs2)cc1C (stereo unspecified),"inconclusive: 31.6 µM [inhibitor, partial curve]",–
CCC(=O)N1CCc2cc(S(=O)(=O)NCCC(=O)NCc3ccc(C)cc3)ccc21,"inconclusive: 79.4 µM [inhibitor, single point]",–
CCOC(=O)C1CCCN(S(=O)(=O)c2cc(Br)cc3c2N(C(C)=O)CC3)C1 (stereo unspecified),"inconclusive: 39.8 µM [inhibitor, single point]",–
COC(=O)Cn1c(=O)c2c3c(sc2n(Cc2ccccc2)c1=O)CCC3,–,inactive: -13.8%
CCOc1ccc(OCCOC(=O)CCC(=O)c2ccc(F)cc2)cc1,–,inactive: 7.2%
CC(C)(C)NC(=O)Cc1csc(-c2cccs2)n1,–,inactive: 77.6%
COc1cc(NC(=O)CSc2nc3nc(C)c(Cc4ccccc4)c(C)n3n2)cc(OC)c1OC,"inconclusive: 89.1 µM [inhibitor, partial curve, poor fit]",–
COc1cccc(N2CCN(C(=O)c3nc(-c4ccc(Cl)cc4)n4c3CCCCC4)CC2)c1,"inconclusive: 39.8 µM [inhibitor, single point]",–
CCCCC(CC)Cn1c(Oc2ccccc2)nc2c1c(=O)n(C)c(=O)n2C (stereo unspecified),"inconclusive: 44.7 µM [inhibitor, partial curve, poor fit]",–
Cc1ccccc1NC(=O)COC(=O)/C=C/c1cccc2cccnc12,–,inactive: -1.66%
CCc1ccc(CNC(=O)c2cnc3sc(N(CC)CC)nn3c2=O)cc1,"inconclusive: 79.4 µM [inhibitor, partial curve, poor fit]",–
CC(C(=O)NCc1ccc(Cl)cc1)n1ccc2cc(S(=O)(=O)N3CCCC3)ccc21 (stereo unspecified),"inconclusive: 56.2 µM [inhibitor, partial curve, poor fit]",–
S=C(NCCc1ccccc1)NCc1cccc(Br)c1,–,inactive: -10.3%
CCOc1ccccc1N(CC)C(=O)c1cc2c(=O)n(CC)c3ccccc3c2s1,"inconclusive: 39.8 µM [inhibitor, full curve, poor fit]",–
O=C(/C=C/c1ccc(Cl)cc1Cl)c1ccccc1OC(F)F,–,inactive: -19.1%
CCCCN(Cc1ccccc1)c1ccc(NS(=O)(=O)c2ccc(CC)cc2)cc1C(=O)O,–,inactive: -7.44%
O=C1CCCC2=C1C(c1ccc(C(F)(F)F)cc1)C1=C(N2)c2ccccc2C1=O (stereo unspecified),–,inactive: -12.3%
O=C(/C=C/c1ccccc1)Nc1nc(-c2cccs2)ns1,–,inactive: 3.78%
O=C(O)c1cc(Cl)cc(Cl)c1I,–,inactive: 2.57%
Cc1ccc2c(C)c(C(=O)NCC(c3ccc(Cl)cc3)N3CCOCC3)oc2c1 (stereo unspecified),"inconclusive: 22.4 µM [inhibitor, full curve]",–
CCN(C(=O)CSc1nc2ccccc2n1Cc1ccccc1C#N)c1ccccc1,"inconclusive: 28.2 µM [inhibitor, full curve]",–
Cc1ccc(-c2nc(S(=O)(=O)c3ccc(C)cc3)c(SCC(=O)c3ccccc3)o2)cc1,"inconclusive: 100 µM [inhibitor, single point]",–

Structure (SMILES),Potency,"activity change, negative = inhibition"
Cc1ccc(Cl)cc1NC(=O)Nc1cn(CC(C)C)c(=O)c2ccccc12,active: 79.4 µM,–
Cc1c(-c2ccccc2)c(=O)oc2cc(OC(=O)c3ccco3)ccc12,–,inactive: -14.5%
COC(=O)Cc1c(C)c2ccc(OCC(=O)OC(C)(C)C)cc2oc1=O,–,inactive: -3.73%
CN1C(=O)Cc2cc(S(=O)(=O)CCC(=O)N3CCN(c4ccc(Cl)cc4)CC3)ccc21,–,inactive: 2.07%
Cc1cc2oc(C(=O)N(Cc3ccc(N(C)C)cc3)CC3CCCO3)c(C)c2cc1Cl (stereo unspecified),"inconclusive: 100 µM [inhibitor, single point]",–
Cc1ccccc1C(=O)Nc1ccc(C(=O)OCc2cc(=O)n3c4c(sc3n2)CCCC4)cc1,"inconclusive: 28.2 µM [inhibitor, full curve, poor fit]",–
CCOc1ccccc1NC(=O)CSc1nccn1Cc1ccc(F)cc1,"inconclusive: 89.1 µM [inhibitor, single point]",–
Cc1cccc(OCCCCn2c(C3CC(=O)N(c4ccc(C)cc4C)C3)nc3ccccc32)c1 (stereo unspecified),"inconclusive: 22.4 µM [inhibitor, full curve, poor fit]",–
COc1cc(/C=C(\C#N)C(=O)c2ccc(C)cc2)ccc1OCc1c(Cl)cccc1Cl,"inconclusive: 44.7 µM [inhibitor, partial curve, poor fit]",–
CC(=O)Nc1ccc(C(=O)C(C)Sc2ccc(C(F)(F)F)cn2)cc1 (stereo unspecified),–,inactive: 2.96%
CCOC(=O)c1cnc(NCc2ccc(Cl)cc2)c2ccccc12,"inconclusive: 11.2 µM [inhibitor, full curve, poor fit]",–
Cc1cccc(C(=O)Nc2nnc(S(=O)(=O)N3c4ccccc4CC3C)s2)c1 (stereo unspecified),"inconclusive: 25.1 µM [inhibitor, partial curve, poor fit]",–
CCCN(C(=O)Cn1nc(Cc2ccncc2)c2ccccc2c1=O)c1ccccc1C,"inconclusive: 79.4 µM [inhibitor, partial curve, poor fit]",–
Cc1c(C(=O)NCc2ccccc2)oc2c1-c1[nH]ncc1CC2,"inconclusive: 89.1 µM [inhibitor, single point]",–
Cc1oc2ncnc(N3CCCCC3)c2c1C(=O)Nc1cccc(F)c1,–,inconclusive: -30.5% [inhibitor]
CCCN1CCC2(CC1)Oc1c(OC)cccc1C1CC(c3ccc4c(c3)OCO4)=NN12 (stereo unspecified),–,inactive: -20.7%
CCOc1ccccc1C(=O)NCC(c1ccc(N(C)C)cc1)N1CCCC1 (stereo unspecified),"inconclusive: 50.1 µM [inhibitor, partial curve, poor fit]",–
CCCCOc1ccc(C(=O)NCCc2csc3nc(-c4ccccc4F)nn23)cc1,"inconclusive: 25.1 µM [inhibitor, partial curve, poor fit]",–
Cc1ccc(Cl)cc1N(C)C(=O)c1cc2ccc3cccnc3c2[nH]1,"inconclusive: 79.4 µM [inhibitor, partial curve, poor fit]",–
N#C/C(=C/c1ccccc1OC(F)(F)F)c1ccccn1,–,inactive: 26.4%
Cc1cccc(Cc2c(C)nc3nc(SCC(=O)NCc4ccccc4)nn3c2C)c1,"inconclusive: 89.1 µM [inhibitor, single point]",–
CNC(=O)C(C)Sc1n[nH]c(-c2ccc(OC)cc2OC)n1 (stereo unspecified),–,inactive: -0.462%

Structure (SMILES),Potency,"activity change, negative = inhibition"
CCCCN(CCCC)C(=O)C1CCN(S(=O)(=O)c2cccc3nsnc23)CC1,"inconclusive: 79.4 µM [inhibitor, partial curve, poor fit]",–
Cc1cc2nc(SCC(=O)Nc3cc(C(F)(F)F)ccc3Cl)[nH]c(=O)c2[nH]1,–,inactive: -1.2%
COc1ccc(OC)c(/C=C/C(=O)Nc2ccc(C(=O)OCCC(C)C)cc2)c1,"inconclusive: 22.4 µM [inhibitor, full curve]",–
CCc1cnc2c(c1SCC(=O)c1ccc(OC)cc1)c(=O)n(C)c(=O)n2C,"inconclusive: 50.1 µM [inhibitor, partial curve, poor fit]",–
COc1ccccc1CNC(=O)CC(c1ccc(OC)c(OC)c1)N1Cc2ccccc2C1=O (stereo unspecified),"inconclusive: 39.8 µM [inhibitor, single point]",–
COc1cccc(-n2c(-c3cccc(F)c3)nc3c(cnn3-c3ccc(C)cc3)c2=O)c1,"inconclusive: 8.91 µM [inhibitor, full curve, poor fit]",–
CC(=O)NCCn1c(SCC(=O)Nc2ccc(C)cc2)nc2ccccc2c1=O,"inconclusive: 100 µM [inhibitor, single point]",–
CC(C)(C)c1ccc(-c2nc(SCC(=O)Nc3ccc(Cl)cc3)[nH]c(=O)c2C#N)cc1,"inconclusive: 79.4 µM [inhibitor, partial curve, poor fit]",–
CCCCOc1cccc(C(=O)N(Cc2cccs2)c2ccc(OC)cc2)c1,"inconclusive: 44.7 µM [inhibitor, full curve]",–
CC(=O)N1c2ccc(S(=O)(=O)NCCC(=O)Nc3ccc(Br)c(C)c3)cc2CC1C (stereo unspecified),–,inactive: -3.42%
CC1=C(C(=O)Nc2ccc(C)cc2Cl)C2(CCCCCC2)OC1=O,–,inactive: -0.0549%
CCN(CCCNC(=O)c1cc2c(Cl)nc3ccccc3c2s1)Cc1ccccc1,"inconclusive: 79.4 µM [inhibitor, partial curve, poor fit]",–
CCCN(C(=O)CCc1nc(-c2ccc(OC)cc2)no1)c1ccccc1F,active: 39.8 µM,–
Cc1cc(C)c2nc(N(Cc3cccnc3)C(=O)c3cccs3)sc2c1,"inconclusive: 100 µM [inhibitor, single point]",–
O=C(NCCc1nc2ccccc2n1Cc1ccc(Cl)cc1Cl)c1ccco1,"inconclusive: 44.7 µM [inhibitor, partial curve, poor fit]",–
CCn1cc(S(=O)(=O)c2ccccc2)c(=O)c2cc(F)c(N3CCN(c4ccccc4)CC3)cc21,"inconclusive: 39.8 µM [inhibitor, partial curve, poor fit]",–
COc1cc(NC(=O)COCc2cc(-c3ccc4c(c3)OCO4)on2)cc(OC)c1,–,inactive: -20%
COc1ccc(OCC(=O)NCc2ccc3c(c2)CCN3C(=O)c2ccc(F)cc2)cc1,"inconclusive: 22.4 µM [inhibitor, full curve, poor fit]",–
CC(C)(C)OC(=O)N1CCC(c2c(C(=O)NCCc3ccccc3)cnn2-c2ccc(F)cc2)CC1,"inconclusive: 89.1 µM [inhibitor, partial curve, poor fit]",–
C=CCOc1ccc(C(=O)NCC(F)(F)F)cc1,–,inactive: -2.4%
CCCCN(CC)c1nc(-c2ccc([N+](=O)[O-])cc2)nc2ccccc12,–,inactive: -10.6%
COc1ccc(-c2cn3nc(N4CCCC(C(=O)Nc5cc(C)cc(C)c5)C4)sc3n2)cc1 (stereo unspecified),"inconclusive: 63.1 µM [inhibitor, partial curve, poor fit]",–
